Among the data in PMC4752459 are binding values, retold here.

The chains behind the UniProt entries cited, without tags or fusion partners. Where a name states a change or a piece, a line headed by the entry shows the natural chain unless it says otherwise.
UniProt P32458: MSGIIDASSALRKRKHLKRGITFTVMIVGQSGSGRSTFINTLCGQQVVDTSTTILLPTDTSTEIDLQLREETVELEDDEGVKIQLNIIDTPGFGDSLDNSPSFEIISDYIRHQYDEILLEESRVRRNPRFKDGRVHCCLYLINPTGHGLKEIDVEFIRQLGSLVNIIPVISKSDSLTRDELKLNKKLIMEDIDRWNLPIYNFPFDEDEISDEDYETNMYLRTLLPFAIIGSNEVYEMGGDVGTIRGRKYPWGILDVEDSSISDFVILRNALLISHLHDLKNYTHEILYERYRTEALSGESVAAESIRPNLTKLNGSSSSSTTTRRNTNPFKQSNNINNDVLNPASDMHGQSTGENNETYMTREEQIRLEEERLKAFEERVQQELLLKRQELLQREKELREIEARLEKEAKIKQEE
UniProt P32468: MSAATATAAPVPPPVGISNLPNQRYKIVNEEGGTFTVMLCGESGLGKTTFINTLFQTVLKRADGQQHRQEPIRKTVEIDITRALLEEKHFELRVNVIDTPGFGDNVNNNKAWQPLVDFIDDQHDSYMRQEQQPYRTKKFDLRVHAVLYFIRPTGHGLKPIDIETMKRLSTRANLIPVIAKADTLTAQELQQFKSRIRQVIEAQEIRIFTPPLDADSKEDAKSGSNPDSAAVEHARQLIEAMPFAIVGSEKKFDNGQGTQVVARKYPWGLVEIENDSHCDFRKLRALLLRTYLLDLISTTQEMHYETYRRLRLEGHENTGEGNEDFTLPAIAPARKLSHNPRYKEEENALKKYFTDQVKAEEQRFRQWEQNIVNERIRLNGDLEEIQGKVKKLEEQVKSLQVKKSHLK
UniProt P32457: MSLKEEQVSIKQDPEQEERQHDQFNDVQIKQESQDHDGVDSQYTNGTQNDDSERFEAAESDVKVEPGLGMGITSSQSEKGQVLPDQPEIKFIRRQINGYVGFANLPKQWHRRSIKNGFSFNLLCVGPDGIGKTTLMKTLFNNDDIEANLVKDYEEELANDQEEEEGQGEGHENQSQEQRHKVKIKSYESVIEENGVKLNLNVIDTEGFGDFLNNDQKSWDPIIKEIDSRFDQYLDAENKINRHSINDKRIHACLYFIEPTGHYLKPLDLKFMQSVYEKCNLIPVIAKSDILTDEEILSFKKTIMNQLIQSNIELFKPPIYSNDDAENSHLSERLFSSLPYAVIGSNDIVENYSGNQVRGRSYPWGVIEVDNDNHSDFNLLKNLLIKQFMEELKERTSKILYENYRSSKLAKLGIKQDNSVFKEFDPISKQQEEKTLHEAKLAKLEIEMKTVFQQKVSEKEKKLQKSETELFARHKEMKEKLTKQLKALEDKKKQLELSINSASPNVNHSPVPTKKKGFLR
UniProt P25342: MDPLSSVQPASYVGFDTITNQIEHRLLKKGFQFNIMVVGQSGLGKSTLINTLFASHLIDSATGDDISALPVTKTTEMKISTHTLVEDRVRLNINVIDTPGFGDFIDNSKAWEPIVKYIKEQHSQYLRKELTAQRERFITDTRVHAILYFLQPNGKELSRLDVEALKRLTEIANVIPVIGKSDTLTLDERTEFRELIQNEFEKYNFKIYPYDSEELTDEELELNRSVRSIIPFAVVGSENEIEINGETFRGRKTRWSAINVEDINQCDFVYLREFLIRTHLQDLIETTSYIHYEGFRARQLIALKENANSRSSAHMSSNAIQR

Results are given in words; binding and its absence hold for the method and conditions named. Binding seen in cells or lysates may run through a third protein. Some results given as binding are weak or reduced against the parent protein; the word gives no strength. Where a sequence is shown, tags or fusion partners need not be part of it.

The assay addresses recombinant SNAP-tagged yeast septin rods (S. cerevisiae) (UniProt P32458+P32468+P32457+P25342). Description: pull-down; SNAP-tagged septin rods coupled to benzylguanine-Sepharose, blocked with BSA, incubated with yeast extract 2 h at 8°C; 50 mM Tris pH 8.0, 300 mM NaCl; 6his-SNAP beads as control; Western blot with anti-protein A or anti-GFP; only the target purified. In general terms: A western blot detects proteins with antibodies after separation by electrophoresis.

B1: GFP tagged Vps1 (protein, UniProt P21576 1-704)
chain: MDEHLISTINKLQDALAPLGGGSQSPIDLPQITVVGSQSSGKSSVLENIVGRDFLPRGTGIVTRRPLVLQLINRRPKKSEHAKVNQTANELIDLNINDDDKKKDESGKHQNEGQSEDNKEEWGEFLHLPGKKFYNFDEIRKEIVKETDKVTGANSGISSVPINLRIYSPHVLTLTLVDLPGLTKVPVGDQPPDIERQIKDMLLKYISKPNAIILSVNAANTDLANSDGLKLAREVDPEGTRTIGVLTKVDLMDQGTDVIDILAGRVIPLRYGYIPVINRGQKDIEHKKTIREALENERKFFENHPSYSSKAHYCGTPYLAKKLNSILLHHIRQTLPEIKAKIEATLKKYQNELINLGPETMDSASSVVLSMITDFSNEYAGILDGEAKELSSQELSGGARISYVFHETFKNGVDSLDPFDQIKDSDIRTIMYNSSGSAPSLFVGTEAFEVLVKQQIRRFEEPSLRLVTLVFDELVRMLKQIISQPKYSRYPALREAISNQFIQFLKDATIPTNEFVVDIIKAEQTYINTAHPDLLKGSQAMVMVEEKLHPRQVAVDPKTGKPLPTQPSSSKAPVMEEKSGFFGGFFSTKNKKKLAALESPPPVLKATGQMTERETMETEVIKLLISSYFSIVKRTIADIIPKALMLKLIVKSKTDIQKVLLEKLYGKQDIEELTKENDITIQRRKECKKMVEILRNASQIVSSV
With B1, the binding entry is listed as “binds”.

B2: Sfb3-TAP (protein, UniProt P38810 1-929)
chain: MSQQNILAASVSALSLDESTVHTGGASSKKSRRPHRAYHNFSSGTVPTLGNSPYTTPQLNQQDGFQQPQAFTPKQFGGFNNGSGSVMSTPVMVSQERFGASEASSPYGQSMLDMTAPQPTSHIVPTQRFEDQAQYLQRSFETCRDSVPPLPTTQFYCVDQGSCDPHLMSLSMYNIPESEHLRAATKLPLGLTIQPFSTLTPNDAEVPTIPLPMDGTPLRCRRCRAYANPKFQFTYDSSVICNICRVKMQVPGEHFAPMGPNGQRSDLNEKSELLHGTVDFLVPSIYNAIQEKELLPLHYVFLIDVSLLANENGSSLAMVEGVRSCIEYISDFQPNCEVAIIVYDNKLRFFNLRPDLDNAQEYIVSELDDVFLPFYNGLFVKPGNSMKIINDTLIKISGYISTDKYSHVPQVCYGSALQAAKLALDTVTGGQGGKIICSLNSLPTIGNGNLSLKRDNAHIAHVKCDNGFYKKLASDFLKSYISLDLYVTNAGFIDMATVGHPVEMTSGILKYYPHFQQETDAFTLVNDMVTNVSNIVGYQALLKVRCSTGLSVEQYYCDSSDNTDHDPIIPVLTRDTTLDVLLKYDSKIKTGTDVHFQTALLYTDIDGVRKVRSINTSGAVSNNIREIFKFINQNPVMRIMIKDVIKTLGDCDFVKIRRLIDDKMVEILTQYRGLVSSNSSTQLILPDSIKTLPAYMLAFEKSELMKPNAQSTRGNERIYDLLKYDSLNSAQLCYKLYPQIVPFHVLLEETDLTFYDANDKLLQINSSSINNLSVRASHSNFINGGCYLIFQGDTIYLWFNENTNRMLLQDLLSVDESLPVSQISLFSGTLPETGTSINQKASNVIKNWQQVVNKSSLPLVLLRPNVDQYYSNVMSQLLCEDKTVNRIESYDNYLVIMHKKIQEKLQKDDFIKVSTAATHENIHQKFVQF
On to B2, for which the binding result was “binds”.
